Structures can show the parent of a compound that is named as a salt. The list shows a part of the results. The data scatter; read single values as rough.
The molecules below were run on MKN45 (assay: ALDHbr (CSC) cell proportion score relative to DMSO vehicle (ratio to DMSO); breast (SUM159) / gastric (MKN45) / pancreatic (PANC1) / colon cancer lines; ALDHbr cells have high ALDH activity and are rich in cancer stem cells (CSC); higher = more CSC (ALDHbr) cells remaining). Details: 10 µM; 72 h.
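Further: High-content imaging of ALDEFLUOR-stained cells with Hoechst-labelled nuclei in 384-well plates, triplicate wells, scored as Z-score against 0.1% DMSO vehicle, negative meaning fewer ALDHbr cells.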

Question: With `CC(=O)OCC(=O)[C@@]12N=C(C)O[C@@H]1C[C@H]1[C@@H]3CCC4=CC(=O)C=C[C@]4(C)[C@H]3[C@@H](O)C[C@@]12C` [Deflazacort] as the molecule, how does the ALDHbr read?
Answer: 0.966

Question: How did the ALDHbr turn out when `CC(CNC1CCCCC1)OC(=O)c1ccccc1` (configuration not stated) [Hexylcaine hydrochloride] was run?
Answer: 1.15

Question: How did the ALDHbr turn out when `CCOC(=O)C1=C(C)NC(C)=C(C(=O)OCC)C1c1ccccc1/C=C/C(=O)OC(C)(C)C` [Lacidipine] was run?
Answer: 0.272

Question: With `O=C(Nc1cccc2c(=O)cc(-c3nnn[nH]3)oc12)c1ccc(OCCCCc2ccccc2)cc1` [Pranlukast] as the molecule, how does the ALDHbr read?
Answer: 1.13

Question: With `CCN(CC)CCOC(=O)C(c1ccccc1)C1CCCCC1` (configuration not stated) [Drofenine hydrochloride] as the molecule, how does the ALDHbr read?
Answer: 0.897

Question: Which ALDHbr does the source give for `C#C[C@]1(O)CC[C@H]2[C@@H]3CCC4=CC(=O)CC[C@@H]4[C@H]3CC[C@@]21C` [Norethindrone] here?
Answer: 0.584

Question: How did the ALDHbr turn out when `CC1(C)NC(=O)N(c2ccc([N+](=O)[O-])c(C(F)(F)F)c2)C1=O` [Nilutamide] was run?
Answer: 0.826

— the supplement of paper PMC11880418
